Measurements from US9920069B2, “Compounds for treatment of fluoroquinolone-resistant bacteria” (The Board of Trustees of the University of Illinois, priority 2014, dated 2018).

Tested on: S. aureus NRS3 (S84L GyrA and S80F ParC)
Type: cell-based
Conditions: in words

SMILES	activity against NRS3 (structure-activity statement)
CCCc1cc(=O)n2c3c(c4c(cc13)c(C)cc(=O)n4C)OC2 [Compound 6]	relatively well tolerated
CCCc1cc(=O)n(C)c2c3c4c(cc12)c(C)cc(=O)n4CO3 [Compound 7]	generally less well tolerated
